{"source": "a collection of fitness landscapes (doi:10.1038/s41467-024-54723-y)", "note": "Whole data set: some 18,000 sequences, median “TetR repression strength (sort-seq, GFP reporter)” near 0.23, cut for the highest 2% near 0.68. The list shows a part of the results.", "data": [{"target": "TetR (class B, Tn10) (UniProt P04483)", "sequence (P04483 whole entry)": "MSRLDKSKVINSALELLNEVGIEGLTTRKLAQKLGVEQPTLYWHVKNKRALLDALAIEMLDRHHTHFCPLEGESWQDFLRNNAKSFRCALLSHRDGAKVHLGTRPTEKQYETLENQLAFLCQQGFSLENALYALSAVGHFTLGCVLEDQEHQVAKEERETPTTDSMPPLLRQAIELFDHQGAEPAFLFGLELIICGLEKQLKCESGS", "assay": "TetR repression strength (sort-seq, GFP reporter) (relative to tetO2 = 1); higher = stronger repression", "settings": "E. coli", "outline": "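E. coli SIG10-MAX carried a low-copy plasmid library with eight randomized operator positions between a constitutive promoter and sfGFP, with TetR constitutively expressed. Cells grew 5 h at 37 °C in LB with 50 µg/mL chloramphenicol, then 10^6 cells were FACS-sorted into 13 fluorescence bins, each Illumina-sequenced. Repression strength is the top bin index plus one minus the read-weighted mean bin, divided by the wild-type operator value. Three independent transformations; variants with ≥30 reads in all replicates and CV ≤0.5 were averaged.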", "values": [{"sequence": "TCCCGCGGAGTGGTTGAGA", "TetR repression strength": 0.768}, {"sequence": "TCCCCTAAAGTTCGTGAGA", "TetR repression strength": 0.294}, {"sequence": "TCCCCATGAGTGAAAGAGA", "TetR repression strength": 0.42}, {"sequence": "TCCCATGTAGTGGAGGAGA", "TetR repression strength": 0.148}, {"sequence": "TCCCTTATAGTCCGCGAGA", "TetR repression strength": 0.267}, {"sequence": "TCCCATGAAGTTATCGAGA", "TetR repression strength": 0.174}, {"sequence": "TCCCCTATAGTTGTCGAGA", "TetR repression strength": 0.19}, {"sequence": "TCCCTAGCAGTGTTTGAGA", "TetR repression strength": 0.369}, {"sequence": "TCCCGATTAGTGTTTGAGA", "TetR repression strength": 0.418}, {"sequence": "TCCCGGAGAGTAGAGGAGA", "TetR repression strength": 0.153}, {"sequence": "TCCCTTCGAGTTTCCGAGA", "TetR repression strength": 0.257}, {"sequence": "TCCCGGAGAGTATGAGAGA", "TetR repression strength": 0.204}, {"sequence": "TCCCACTAAGTGGTCGAGA", "TetR repression strength": 0.0268}, {"sequence": "TCCCGAAAAGTCAGCGAGA", "TetR repression strength": 0.0132}, {"sequence": "TCCCTCGCAGTCAGCGAGA", "TetR repression strength": 0.355}, {"sequence": "TCCCCTAAAGTCGAGGAGA", "TetR repression strength": 0.11}, {"sequence": "TCCCCGCCAGTGGACGAGA", "TetR repression strength": 0.191}, {"sequence": "TCCCCCCAAGTCGGCGAGA", "TetR repression strength": 0.00669}, {"sequence": "TCCCATTTAGTCGAAGAGA", "TetR repression strength": 0.104}, {"sequence": "TCCCGAATAGTGCAGGAGA", "TetR repression strength": 0.25}, {"sequence": "TCCCGCTGAGTAATTGAGA", "TetR repression strength": 0.546}, {"sequence": "TCCCGCCAAGTTGTTGAGA", "TetR repression strength": 0.0898}, {"sequence": "TCCCGGGCAGTGTGTGAGA", "TetR repression strength": 0.25}, {"sequence": "TCCCAAATAGTTAGTGAGA", "TetR repression strength": 0.625}, {"sequence": "TCCCTTAAAGTTACGGAGA", "TetR repression strength": 0.125}, {"sequence": "TCCCTTTAAGTTGGTGAGA", "TetR repression strength": 0.335}, {"sequence": "TCCCCCGTAGTAAGCGAGA", "TetR repression strength": 0.26}, {"sequence": "TCCCAATGAGTTGGCGAGA", "TetR repression strength": 0.124}, {"sequence": "TCCCCGACAGTTACGGAGA", "TetR repression strength": 0.188}, {"sequence": "TCCCCGCGAGTTAGAGAGA", "TetR repression strength": 0.399}, {"sequence": "TCCCCTTAAGTTGTAGAGA", "TetR repression strength": 0.424}, {"sequence": "TCCCGGTTAGTACCCGAGA", "TetR repression strength": 0.0883}, {"sequence": "TCCCGTGTAGTTAGTGAGA", "TetR repression strength": 0.308}, {"sequence": "TCCCTGTTAGTGAAGGAGA", "TetR repression strength": 0.271}, {"sequence": "TCCCGTTCAGTGTTGGAGA", "TetR repression strength": 0.222}, {"sequence": "TCCCGACGAGTGGTTGAGA", "TetR repression strength": 0.162}, {"sequence": "TCCCTGTGAGTAGACGAGA", "TetR repression strength": 0.167}, {"sequence": "TCCCTATGAGTGACCGAGA", "TetR repression strength": 0.604}, {"sequence": "TCCCGCAAAGTAAGGGAGA", "TetR repression strength": 0.198}, {"sequence": "TCCCGTTGAGTATCGGAGA", "TetR repression strength": 0.133}, {"sequence": "TCCCGGTGAGTTTGCGAGA", "TetR repression strength": 0.34}, {"sequence": "TCCCCGTAAGTTTGGGAGA", "TetR repression strength": 0.0954}, {"sequence": "TCCCTATGAGTGGACGAGA", "TetR repression strength": 0.404}, {"sequence": "TCCCTTTTAGTCTATGAGA", "TetR repression strength": 0.858}, {"sequence": "TCCCTGTGAGTCGCCGAGA", "TetR repression strength": 0.133}, {"sequence": "TCCCTATTAGTCGTTGAGA", "TetR repression strength": 0.26}, {"sequence": "TCCCAGGTAGTGTATGAGA", "TetR repression strength": 0.204}, {"sequence": "TCCCAGATAGTCTGCGAGA", "TetR repression strength": 0.303}, {"sequence": "TCCCCCGAAGTAGTGGAGA", "TetR repression strength": 0.308}, {"sequence": "TCCCAAGGAGTGCGGGAGA", "TetR repression strength": 0.119}, {"sequence": "TCCCATCCAGTATAAGAGA", "TetR repression strength": 0.298}, {"sequence": "TCCCGGAAAGTGACCGAGA", "TetR repression strength": 0.203}, {"sequence": "TCCCTAGTAGTGTCCGAGA", "TetR repression strength": 0.266}, {"sequence": "TCCCTAGAAGTGTTAGAGA", "TetR repression strength": 0.415}, {"sequence": "TCCCACGGAGTGTCGGAGA", "TetR repression strength": 0.202}, {"sequence": "TCCCGGGCAGTGCGTGAGA", "TetR repression strength": 0.185}, {"sequence": "TCCCGCTGAGTTTTCGAGA", "TetR repression strength": 0.25}, {"sequence": "TCCCATCCAGTTCTGGAGA", "TetR repression strength": 0.484}, {"sequence": "TCCCGAGTAGTTGCCGAGA", "TetR repression strength": 0.132}, {"sequence": "TCCCTTCGAGTGGGGGAGA", "TetR repression strength": 0.2}, {"sequence": "TCCCCGAAAGTCTCAGAGA", "TetR repression strength": 0.207}, {"sequence": "TCCCGCACAGTGTTCGAGA", "TetR repression strength": 0.143}, {"sequence": "TCCCTATAAGTGGTCGAGA", "TetR repression strength": 0.628}, {"sequence": "TCCCATTAAGTTGGCGAGA", "TetR repression strength": 0.192}, {"sequence": "TCCCGGGAAGTGGAGGAGA", "TetR repression strength": 0.065}, {"sequence": "TCCCGTAGAGTGGAGGAGA", "TetR repression strength": 0.172}, {"sequence": "TCCCTGGAAGTGACGGAGA", "TetR repression strength": 0.422}, {"sequence": "TCCCGAGTAGTGGGGGAGA", "TetR repression strength": 0.254}, {"sequence": "TCCCAATCAGTAGCCGAGA", "TetR repression strength": 0.308}, {"sequence": "TCCCAAGTAGTTTCTGAGA", "TetR repression strength": 0.359}, {"sequence": "TCCCCCGTAGTGATAGAGA", "TetR repression strength": 0.214}, {"sequence": "TCCCTTGCAGTCATGGAGA", "TetR repression strength": 0.115}, {"sequence": "TCCCTGTCAGTTCGGGAGA", "TetR repression strength": 0.244}, {"sequence": "TCCCGTTAAGTCTGGGAGA", "TetR repression strength": 0.125}, {"sequence": "TCCCTAGCAGTCTGGGAGA", "TetR repression strength": 0.426}, {"sequence": "TCCCCCTGAGTCAGGGAGA", "TetR repression strength": 0.29}, {"sequence": "TCCCGGTCAGTAGTCGAGA", "TetR repression strength": 0.665}, {"sequence": "TCCCCACCAGTACCCGAGA", "TetR repression strength": 0.403}, {"sequence": "TCCCCCGGAGTCCTAGAGA", "TetR repression strength": 0.301}, {"sequence": "TCCCGCGTAGTGAGAGAGA", "TetR repression strength": 0.526}, {"sequence": "TCCCGTAGAGTATCGGAGA", "TetR repression strength": 0.38}, {"sequence": "TCCCAAGCAGTTAGGGAGA", "TetR repression strength": 0.339}, {"sequence": "TCCCACAGAGTTGTTGAGA", "TetR repression strength": 0.207}, {"sequence": "TCCCAAGAAGTAGACGAGA", "TetR repression strength": 0.227}, {"sequence": "TCCCCGTTAGTGGGGGAGA", "TetR repression strength": 0.25}, {"sequence": "TCCCTTTGAGTGTGCGAGA", "TetR repression strength": 0.218}, {"sequence": "TCCCTCAGAGTGATAGAGA", "TetR repression strength": 0.342}, {"sequence": "TCCCGGAGAGTACTGGAGA", "TetR repression strength": 0.171}, {"sequence": "TCCCAAGAAGTGCGCGAGA", "TetR repression strength": 0.258}, {"sequence": "TCCCTCGTAGTTGATGAGA", "TetR repression strength": 0.253}, {"sequence": "TCCCAGTTAGTGAGAGAGA", "TetR repression strength": 0.315}, {"sequence": "TCCCAATCAGTGGGGGAGA", "TetR repression strength": 0.283}, {"sequence": "TCCCTGGAAGTTGCTGAGA", "TetR repression strength": 0.271}, {"sequence": "TCCCCGAGAGTATATGAGA", "TetR repression strength": 0.207}, {"sequence": "TCCCATGCAGTGCGCGAGA", "TetR repression strength": 0.202}, {"sequence": "TCCCGTCGAGTGTTCGAGA", "TetR repression strength": 0.218}, {"sequence": "TCCCGTCCAGTGATTGAGA", "TetR repression strength": 0.614}, {"sequence": "TCCCACGGAGTTGGGGAGA", "TetR repression strength": 0.232}, {"sequence": "TCCCAAAGAGTGCAGGAGA", "TetR repression strength": 0.187}, {"sequence": "TCCCCTGGAGTGCTTGAGA", "TetR repression strength": 0.291}, {"sequence": "TCCCGGTAAGTGATCGAGA", "TetR repression strength": 0.166}, {"sequence": "TCCCGATCAGTGAACGAGA", "TetR repression strength": 0.628}, {"sequence": "TCCCGAATAGTGTATGAGA", "TetR repression strength": 0.441}, {"sequence": "TCCCAGCTAGTGACGGAGA", "TetR repression strength": 0.226}, {"sequence": "TCCCTGCCAGTGGTGGAGA", "TetR repression strength": 0.381}, {"sequence": "TCCCGCAAAGTGGGAGAGA", "TetR repression strength": 0.16}, {"sequence": "TCCCATGAAGTGGTCGAGA", "TetR repression strength": 0.4}, {"sequence": "TCCCAATTAGTGTAGGAGA", "TetR repression strength": 0.21}, {"sequence": "TCCCATAGAGTCGTGGAGA", "TetR repression strength": 0.0563}, {"sequence": "TCCCCGTGAGTTGAGGAGA", "TetR repression strength": 0.335}, {"sequence": "TCCCGTTTAGTCGACGAGA", "TetR repression strength": 0.158}, {"sequence": "TCCCACCGAGTGGCTGAGA", "TetR repression strength": 0.516}, {"sequence": "TCCCGTTCAGTCCTAGAGA", "TetR repression strength": 0.355}, {"sequence": "TCCCCAGCAGTGGAGGAGA", "TetR repression strength": 0.217}, {"sequence": "TCCCCTCTAGTCGCCGAGA", "TetR repression strength": 0.41}, {"sequence": "TCCCCCTCAGTATCTGAGA", "TetR repression strength": 0.311}, {"sequence": "TCCCCACGAGTCATAGAGA", "TetR repression strength": 0.337}, {"sequence": "TCCCAGTTAGTTCAAGAGA", "TetR repression strength": 0.304}, {"sequence": "TCCCTAAAAGTGCGCGAGA", "TetR repression strength": 0.165}, {"sequence": "TCCCGAAGAGTTGCCGAGA", "TetR repression strength": 0.126}, {"sequence": "TCCCCCGTAGTAGTGGAGA", "TetR repression strength": 0.0732}, {"sequence": "TCCCTGCAAGTTCTGGAGA", "TetR repression strength": 0.0603}, {"sequence": "TCCCTAGCAGTCAGTGAGA", "TetR repression strength": 0.227}, {"sequence": "TCCCGCGCAGTGACCGAGA", "TetR repression strength": 0.219}, {"sequence": "TCCCTGAGAGTGGTGGAGA", "TetR repression strength": 0.336}, {"sequence": "TCCCTGATAGTGCGGGAGA", "TetR repression strength": 0.237}, {"sequence": "TCCCCTTGAGTGCATGAGA", "TetR repression strength": 0.184}, {"sequence": "TCCCTACTAGTAGTAGAGA", "TetR repression strength": 0.389}, {"sequence": "TCCCATTAAGTTCCTGAGA", "TetR repression strength": 0.228}, {"sequence": "TCCCCCGAAGTCGTAGAGA", "TetR repression strength": 0.268}]}]}
